The source of these data is US11827699 (dated 2023).

The target of this experiment is T1, mouse FcγRIIb (mouse, UniProt P08101).
T1 chain: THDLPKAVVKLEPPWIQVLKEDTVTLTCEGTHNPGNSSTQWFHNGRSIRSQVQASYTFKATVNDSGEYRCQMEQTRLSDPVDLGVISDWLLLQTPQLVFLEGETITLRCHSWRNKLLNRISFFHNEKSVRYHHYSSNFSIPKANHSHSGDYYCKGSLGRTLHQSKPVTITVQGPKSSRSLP
The experiment is described as follows: SPR, pH 7.4.

B1: VH3/L(WT)-IgG1-F1022 (antibody)
chain 1: QVQLQESGPGLVKPSETLSLTCAVSGHSISHDHAWSWVRQPPGEGLEWIGFISYSGITNYNPSLQGRVTISRDNSKNTLYLQMNSLRAEDTAVYYCARSLARTTAMDYWGEGTLVTVSS[gap - human IgG1 constant region with K326D L328Y (EU numbers)]
chain 2: DIQMTQSPSSLSASVGDRVTITCRASQDISSYLNWYQQKPGKAPKLLIYYTSRLHSGVPSRFSGSGSGTDFTFTISSLQPEDIATYYCQQGNTLPYTFGQGTKVEIKRTVAAPSVFIFPPSDEQLKSGTASVVCLLNNFYPREAKVQWKVDNALQSGNSQESVTEQDSKDSTYSLSSTLTLSKADYEKHKVYACEVTHQGLSSPVTKSFNRGEC
B1: the Kd was found to be 10 nM. This lies in the double-digit nanomolar range.
